The test system of one test is HSkMC. The experiment in a line: cytotoxicity call (relative viability < 0.9). As to conditions: 10 µM.
For a further test, the system named is HepG2. The experiment in a line: cytotoxicity call (relative viability < 0.9). Particulars: 10 µM.
The subject of another test is S. aureus RN4220. The test is described as follows: growth inhibition call (relative growth <= 0.2). Particulars: 50 µM.

The other results are listed elsewhere or left out.

In the case of `C[C@@H]1CN([C@H](C)CO)C(=O)c2cccc(NC(=O)c3ccno3)c2O[C@H]1CN(C)S(=O)(=O)c1cccs1`, the cytotoxicity call with HSkMC and in the test with HepG2 was “inactive” in each case. In the test with S. aureus RN4220, the growth inhibition call was “inactive”.

Turning to `CC(C)NC(=O)N(C)C[C@@H]1Oc2c(NS(=O)(=O)c3cccs3)cccc2C(=O)N([C@H](C)CO)C[C@@H]1C`, the cytotoxicity call in the test with HSkMC and with HepG2 was “inactive” throughout. For the same molecule, the growth inhibition call in the test on S. aureus RN4220 is “inactive”.

Turning to `C[C@@H]1CN([C@@H](C)CO)C(=O)c2cc(NC(=O)Nc3ccc(C(F)(F)F)cc3)ccc2O[C@@H]1CN(C)Cc1ccc(C(=O)Nc2ccccc2N)cc1`, the cytotoxicity call in the test with HSkMC was “inactive”. Moreover, the cytotoxicity call in the test on HepG2 was “active”. Besides, the growth inhibition call with S. aureus RN4220 was “inactive”.

For the molecule `C[C@H](CO)N1C[C@H](C)[C@@H](CN(C)Cc2ccccc2)Oc2ccc(NC(=O)CCN3CCOCC3)cc2CC1=O`, the cytotoxicity call in the test on HSkMC and in the test on HepG2 was “inactive” in each case. Besides, the growth inhibition call in the test with S. aureus RN4220 is “inactive”.

With `COc1ccc2c(c1)c(-c1cccc(C)c1)nn2-c1ccccc1`, the cytotoxicity call in the test on HSkMC and with HepG2 was “inactive” throughout. In the test on S. aureus RN4220, the growth inhibition call is “inactive”.

As to `CCCNC(=O)N1C[C@]2(CCN(CC2)S(=O)(=O)c2cccc(c2)OC)c2c(n(c3cc(ccc23)OC)C)[C@@H]1CO`, the cytotoxicity call in the test with HSkMC and in the test with HepG2 was “inactive” each time. Besides, the growth inhibition call in the test on S. aureus RN4220 was “inactive”.

Regarding `CO[C@@H](CN(C)S(=O)(=O)c1ccc(C)cc1)[C@@H](C)CN([C@H](C)CO)S(=O)(=O)c1cccc(Cl)c1`, the cytotoxicity call with HSkMC and in the test with HepG2 was “inactive” in each case. The growth inhibition call in the test with S. aureus RN4220 is “inactive”.

On to `COCC#Cc1ccc2c(c1)O[C@H](CN(C)C(=O)C1CCOCC1)[C@@H](C)CN([C@@H](C)CO)S2(=O)=O`, for which the cytotoxicity call in the test with HSkMC and with HepG2 was “inactive” in each case. Moreover, the growth inhibition call in the test with S. aureus RN4220 is “inactive”.

As for `COc1ccc(NC(=O)Nc2ccc3c(c2)C(=O)N([C@H](C)CO)C[C@H](C)[C@@H](CN(C)S(=O)(=O)c2cn(C)cn2)O3)cc1`, the cytotoxicity call in the test on HSkMC (human skeletal muscle cells) and with HepG2 was “inactive” in each case. Besides, the growth inhibition call with S. aureus RN4220 was “inactive”.

For the origin of these results see the antibiotic and cytotoxicity screens of Wong et al. (2023).
